# Laboratory results published in a collection of fitness landscapes (doi:10.1126/science.1257360).
# This is one part of the list.
# B1: PhoQ; a variant is named by its letters at X, in order, P23837 (parent)
# chain: MKKLLRLFFPLSLRVRFLLATAAVVLVLSLAYGMVALIGYSVSFDKTTFRLLRGESNLFYTLAKWENNKLHVELPENIDKQSPTMTLIYDENGQLLWAQRDVPWLMKMIQPDWLKSNGFHEIEADVNDTSLLLSGDHSIQQQLQEVREDDDDAEMTHSVAVNVYPATSRMPKLTIVVVDTIPVELKSSYMVWSWFIYVLSANLLLVIPLLWVAAWWSLRPIEALAKEVRELEEHNRELLNPATTRELTSLVRNLNRLLKSERERYDKYRTTLTDLTHSLKTPLXXLQXXLRSLRSEKMSVSDAEPVMLEQISRISQQIGYYLHRASMRGGTLLSRELHPVAPLLDNLTSALNKVYQRKGVNISLDISPEISFVGEQNDFVEVMGNVLDNACKYCLEFVEISARQTDEHLYIVVEDDGPGIPLSKREVIFDRGQRVDTLRPGQGVGLAVAREITEQYEGKIVAGESMLGGARMEVIFGRQHSAPKDE
# Variants of: B1
# Experiment: enrichment ratio after two sorts for PhoP signalling (ratio (wild type AVST 3.29)); higher = more functional
# Conditions: with PhoP (E. coli)
row,Variant,enrichment ratio
1,GVAG,≤ 0.25
2,EIIK,≤ 0.25
3,RTPT,≤ 0.25
4,LKYG,≤ 0.25
5,PGAV,≤ 0.25
6,ASNS,≤ 0.25
7,YPDM,≤ 0.25
8,HTMH,≤ 0.25
9,KPTD,≤ 0.25
10,NMKR,≤ 0.25
11,QFLG,≤ 0.25
12,NTYC,≤ 0.25
13,GTLI,15.8
14,NMQM,≤ 0.25
15,NIRH,≤ 0.25
16,IGNE,≤ 0.25
17,VIAI,≤ 0.25
18,KTVQ,≤ 0.25
19,PHTP,≤ 0.25
20,EPYA,≤ 0.25
21,EVRC,≤ 0.25
22,QVDT,≤ 0.25
23,WNSI,≤ 0.25
24,PKLT,≤ 0.25
25,GDSD,≤ 0.25

row,Variant,enrichment ratio
1,LNYI,≤ 0.25
2,PSEG,≤ 0.25
3,MFEN,≤ 0.25
4,YLTG,≤ 0.25
5,CHMK,≤ 0.25
6,NWKF,≤ 0.25
7,YTKM,≤ 0.25
8,QMAW,≤ 0.25
9,RKWG,≤ 0.25
10,QSSG,6.34
11,IKQC,≤ 0.25
12,YLTN,≤ 0.25
13,LVCY,≤ 0.25
14,FHCN,≤ 0.25
15,EKEF,≤ 0.25
16,YDFM,≤ 0.25
17,TRQS,≤ 0.25
18,IRHM,≤ 0.25
19,NCTR,≤ 0.25
20,TQWP,≤ 0.25
21,FVVE,≤ 0.25
22,GCPP,≤ 0.25
23,LIAM,≤ 0.25
24,RERC,≤ 0.25
25,SWYG,≤ 0.25

row,Variant,enrichment ratio
1,VAMT,≤ 0.25
2,KFYA,≤ 0.25
3,FDAV,≤ 0.25
4,VNSW,≤ 0.25
5,RRSW,≤ 0.25
6,VQGD,≤ 0.25
7,PFMH,≤ 0.25
8,TLIF,≤ 0.25
9,VTTY,≤ 0.25
10,ITSA,≤ 0.25
11,QMEL,≤ 0.25
12,ELCY,≤ 0.25
13,VSWD,≤ 0.25
14,MFYD,≤ 0.25
15,FEDI,≤ 0.25
16,MHTK,≤ 0.25
17,EYYA,≤ 0.25
18,EQKV,≤ 0.25
19,RTAA,≤ 0.25
20,MKWH,≤ 0.25
21,MTAM,6.57
22,VRIF,≤ 0.25
23,SNTY,6.94
24,DADL,≤ 0.25
25,IHIK,≤ 0.25

row,Variant,enrichment ratio
1,ILWL,≤ 0.25
2,IVGR,≤ 0.25
3,YMKM,≤ 0.25
4,YPEG,≤ 0.25
5,YGNK,≤ 0.25
6,FKHS,≤ 0.25
7,ESYT,≤ 0.25
8,NYQM,≤ 0.25
9,PCCW,≤ 0.25
10,EARI,≤ 0.25
11,TCAR,5.3
12,VYHL,≤ 0.25
13,WYGQ,≤ 0.25
14,IVAV,≤ 0.25
15,PFSK,≤ 0.25
16,IIWC,≤ 0.25
17,AEPA,≤ 0.25
18,HILS,≤ 0.25
19,FCWD,≤ 0.25
20,HGFS,≤ 0.25
21,SECV,24.5
22,RDPF,≤ 0.25
23,KTRQ,≤ 0.25
24,TMNW,≤ 0.25
25,MDFW,≤ 0.25

row,Variant,enrichment ratio
1,SYSW,≤ 0.25
2,EGIA,≤ 0.25
3,RQSE,≤ 0.25
4,NRSN,≤ 0.25
5,WYRA,≤ 0.25
6,IHHG,≤ 0.25
7,NSCF,≤ 0.25
8,QCWP,≤ 0.25
9,NECL,≤ 0.25
10,WCII,≤ 0.25
11,EFQC,≤ 0.25
12,SGWQ,≤ 0.25
13,PPQL,≤ 0.25
14,KCRI,≤ 0.25
15,KSKT,≤ 0.25
16,ICSW,≤ 0.25
17,RECV,≤ 0.25
18,IMSQ,≤ 0.25
19,HQGD,≤ 0.25
20,RKYQ,≤ 0.25
21,VFRY,≤ 0.25
22,KGQE,≤ 0.25
23,LMIH,≤ 0.25
24,TQQN,14.8
25,YNNW,≤ 0.25

row,Variant,enrichment ratio
1,ISVY,≤ 0.25
2,ATDV,≤ 0.25
3,SPDM,≤ 0.25
4,GNQH,≤ 0.25
5,ALHI,≤ 0.25
6,LMIS,≤ 0.25
7,QLVN,≤ 0.25
8,SEPK,≤ 0.25
9,MCML,17.5
10,NYPT,≤ 0.25
11,SEMR,5.37
12,DGMP,≤ 0.25
13,NSYY,≤ 0.25
14,PEVG,≤ 0.25
15,PEVC,≤ 0.25
16,CCYF,≤ 0.25
17,HSNV,≤ 0.25
18,WGCA,≤ 0.25
19,ALCV,6.63
20,FGQF,≤ 0.25
21,HDHN,≤ 0.25
22,KSFL,≤ 0.25
23,HQWP,≤ 0.25
24,TELC,11.4
25,QDCW,≤ 0.25

row,Variant,enrichment ratio
1,PNCN,≤ 0.25
2,EYIM,≤ 0.25
3,WPCG,≤ 0.25
4,GKKS,≤ 0.25
5,WNAV,≤ 0.25
6,LFCP,≤ 0.25
7,LACC,≤ 0.25
8,ATNC,≤ 0.25
9,DNIN,≤ 0.25
10,QNNR,≤ 0.25
11,SEPD,≤ 0.25
12,SMEA,≤ 0.25
13,PTWY,≤ 0.25
14,QMRV,≤ 0.25
15,NQKD,≤ 0.25
16,RTQS,0.421
17,SWTY,≤ 0.25
18,PWGI,≤ 0.25
19,YPAM,≤ 0.25
20,DEPM,≤ 0.25
21,HDMY,≤ 0.25
22,KCYM,≤ 0.25
23,SQAY,11.2
24,VTCR,≤ 0.25
25,LTCG,≤ 0.25

row,Variant,enrichment ratio
1,IKRL,≤ 0.25
2,QMTG,≤ 0.25
3,ITHG,≤ 0.25
4,SFRT,≤ 0.25
5,DDAY,≤ 0.25
6,IDVT,≤ 0.25
7,LRLE,≤ 0.25
8,GTAP,≤ 0.25
9,FVAW,≤ 0.25
10,WPWV,≤ 0.25
11,GCWL,≤ 0.25
12,DALY,≤ 0.25
13,WKEA,≤ 0.25
14,RVAV,≤ 0.25
15,YRAF,≤ 0.25
16,QNLN,≤ 0.25
17,KVSK,≤ 0.25
18,PHVY,≤ 0.25
19,KESP,≤ 0.25
20,MFLC,≤ 0.25
